Laboratory results from the supplement of paper PMC10126150.
Values marked as one replicate rest on one cluster of the flow cell; about a third of the high ones do not repeat.

Tested on: ATP
Assay: switch fluorescence ratio, 500 uM ATP over buffer (Cy3 cluster intensity, sum of 5 cycles each) (fold (ratio)); higher = stronger signal-on switching upon ATP binding; sequences stand for … in TCGTCGGCAGCGTCAGATGTGTATAAGAGACAGTTTTTTTTTTTTTTTTTTTTTTTTT…TC
Details: aptamer strand: ATP DNA aptamer (quencher-CACCTGGGGGAGTATTGCGGAGGAAGG + anchor), 100 nM annealed; ATP concentration: 500 uM; one replicate
How it was run: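 Cy3-labelled switching-strand clusters on a modified Illumina MiSeq flow-cell were annealed to 100 nM quencher-labelled ATP aptamer and imaged first in selection buffer, then after 15 min with 500 uM ATP at 22 °C. NaOH stripping and re-annealing separated each of five buffer/ATP cycles, and clusters outside 100-1000 RFU were excluded. The fluorescence ratio sums target-cycle Cy3 intensity over buffer-cycle Cy3 intensity per cluster and averages it per switch-domain sequence.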
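Also: ATP exposure 15 min at 22 °C before imaging.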

**Q.** With ATGTGTCACA as the sequence, how does the switch fluorescence ratio read?
**A.** 0.973

**Q.** For ATGTGTTGAG, which switch fluorescence ratio is on record?
**A.** 1

**Q.** With ATGTTAAAAA as the sequence, how does the switch fluorescence ratio read?
**A.** 1.04

**Q.** For ATGTTAAAGT, which switch fluorescence ratio is on record?
**A.** 0.951

**Q.** For ATGTTACTGT, which switch fluorescence ratio is on record?
**A.** 1.02

**Q.** With ATGTTAGCCG as the sequence, how does the switch fluorescence ratio read?
**A.** 0.997

**Q.** Which switch fluorescence ratio does the source give for ATGTTATGT here?
**A.** 1.01

**Q.** How did the switch fluorescence ratio turn out when ATGTTCACGT was run?
**A.** 0.97

**Q.** For ATGTTCATGC, which switch fluorescence ratio is on record?
**A.** 1.02

**Q.** ATGTTCCAAT was tested. Which switch fluorescence ratio did it give?
**A.** 1

**Q.** How did the switch fluorescence ratio turn out when ATGTTCTAAT was run?
**A.** 0.987

**Q.** Which switch fluorescence ratio does the source give for ATGTTGACTC here?
**A.** 1.03

**Q.** ATGTTGATCA was tested. Which switch fluorescence ratio did it give?
**A.** 1.03

**Q.** With ATGTTGGAGA as the sequence, how does the switch fluorescence ratio read?
**A.** 1.02

**Q.** ATGTTGGATT was tested. Which switch fluorescence ratio did it give?
**A.** 0.959

**Q.** For ATGTTGGCGG, which switch fluorescence ratio is on record?
**A.** 1

**Q.** Which switch fluorescence ratio does the source give for ATGTTGTCGC here?
**A.** 1

**Q.** With ATGTTTCTCG as the sequence, how does the switch fluorescence ratio read?
**A.** 1.03

**Q.** Which switch fluorescence ratio does the source give for ATTAAAAGAG here?
**A.** 1.02

**Q.** How did the switch fluorescence ratio turn out when ATTAAAATTA was run?
**A.** 0.993

**Q.** ATTAAAGCGG was tested. Which switch fluorescence ratio did it give?
**A.** 1.03

**Q.** Which switch fluorescence ratio does the source give for ATTAAATAT here?
**A.** 1.06

**Q.** How did the switch fluorescence ratio turn out when ATTAACCTAG was run?
**A.** 1.03

**Q.** Which switch fluorescence ratio does the source give for ATTAACGATC here?
**A.** 1.02

**Q.** How did the switch fluorescence ratio turn out when ATTAAGCA was run?
**A.** 1.01

**Q.** Which switch fluorescence ratio does the source give for ATTAAGTAAG here?
**A.** 1.01

**Q.** Which switch fluorescence ratio does the source give for ATTAATATAC here?
**A.** 1.06

**Q.** ATTAATTGAT was tested. Which switch fluorescence ratio did it give?
**A.** 1.02

**Q.** ATTACAAGG was tested. Which switch fluorescence ratio did it give?
**A.** 1.02

**Q.** With ATTACCTCAA as the sequence, how does the switch fluorescence ratio read?
**A.** 1.01

**Q.** How did the switch fluorescence ratio turn out when ATTACTGCTT was run?
**A.** 0.963

**Q.** For ATTACTTCG, which switch fluorescence ratio is on record?
**A.** 1.05

**Q.** Which switch fluorescence ratio does the source give for ATTAGATAAG here?
**A.** 1.03

**Q.** With ATTAGCACAA as the sequence, how does the switch fluorescence ratio read?
**A.** 1.18

**Q.** Which switch fluorescence ratio does the source give for ATTAGCCAAA here?
**A.** 0.99

**Q.** For ATTAGGCCTG, which switch fluorescence ratio is on record?
**A.** 1.01

**Q.** ATTAGGGGA was tested. Which switch fluorescence ratio did it give?
**A.** 1.02

**Q.** How did the switch fluorescence ratio turn out when ATTAGTATTA was run?
**A.** 1.01

**Q.** How did the switch fluorescence ratio turn out when ATTAGTCCT was run?
**A.** 1.03

**Q.** With ATTAGTGCGG as the sequence, how does the switch fluorescence ratio read?
**A.** 0.967

**Q.** How did the switch fluorescence ratio turn out when ATTATACAC was run?
**A.** 1.02

**Q.** Which switch fluorescence ratio does the source give for ATTATCAATT here?
**A.** 0.996

**Q.** How did the switch fluorescence ratio turn out when ATTATCGCC was run?
**A.** 1.06

**Q.** ATTATCTAT was tested. Which switch fluorescence ratio did it give?
**A.** 0.953

**Q.** With ATTATGTCCT as the sequence, how does the switch fluorescence ratio read?
**A.** 1.02

**Q.** For ATTATGTTAC, which switch fluorescence ratio is on record?
**A.** 1.03

**Q.** ATTATTTAGA was tested. Which switch fluorescence ratio did it give?
**A.** 0.998

**Q.** For ATTATTTCAC, which switch fluorescence ratio is on record?
**A.** 1.02

**Q.** Which switch fluorescence ratio does the source give for ATTATTTCTC here?
**A.** 0.971

**Q.** How did the switch fluorescence ratio turn out when ATTCAACCG was run?
**A.** 1.03

**Q.** How did the switch fluorescence ratio turn out when ATTCAACGTG was run?
**A.** 0.98

**Q.** For ATTCAATCTC, which switch fluorescence ratio is on record?
**A.** 0.976

**Q.** ATTCACTATT was tested. Which switch fluorescence ratio did it give?
**A.** 1.01

**Q.** With ATTCAGAATC as the sequence, how does the switch fluorescence ratio read?
**A.** 0.997

**Q.** ATTCAGGAG was tested. Which switch fluorescence ratio did it give?
**A.** 1.01

**Q.** How did the switch fluorescence ratio turn out when ATTCATACAA was run?
**A.** 0.995

**Q.** For ATTCCAAT, which switch fluorescence ratio is on record?
**A.** 0.978

**Q.** With ATTCCCGTAC as the sequence, how does the switch fluorescence ratio read?
**A.** 1.31

**Q.** For ATTCCCTTTG, which switch fluorescence ratio is on record?
**A.** 1.08

**Q.** ATTCCGGAGT was tested. Which switch fluorescence ratio did it give?
**A.** 2.22

**Q.** With ATTCCTGAAG as the sequence, how does the switch fluorescence ratio read?
**A.** 1.01

**Q.** Which switch fluorescence ratio does the source give for ATTCCTTTAT here?
**A.** 1.02

**Q.** ATTCGAAAAT was tested. Which switch fluorescence ratio did it give?
**A.** 1.12

**Q.** ATTCGAATTA was tested. Which switch fluorescence ratio did it give?
**A.** 0.964

**Q.** For ATTCGATTCT, which switch fluorescence ratio is on record?
**A.** 1

**Q.** For ATTCGCCCCA, which switch fluorescence ratio is on record?
**A.** 0.979

**Q.** With ATTCGCTACT as the sequence, how does the switch fluorescence ratio read?
**A.** 1.58

**Q.** For ATTCGGCTCT, which switch fluorescence ratio is on record?
**A.** 1.01

**Q.** Which switch fluorescence ratio does the source give for ATTCGTACAT here?
**A.** 1.04

**Q.** Which switch fluorescence ratio does the source give for ATTCGTCCCA here?
**A.** 1.04

**Q.** ATTCGTTTCC was tested. Which switch fluorescence ratio did it give?
**A.** 1.08

**Q.** With ATTCTCCAGG as the sequence, how does the switch fluorescence ratio read?
**A.** 2.17

**Q.** How did the switch fluorescence ratio turn out when ATTCTGCGAG was run?
**A.** 1.01

**Q.** How did the switch fluorescence ratio turn out when ATTCTGGTTG was run?
**A.** 1

**Q.** For ATTCTTATC, which switch fluorescence ratio is on record?
**A.** 0.941

**Q.** For ATTCTTCTTG, which switch fluorescence ratio is on record?
**A.** 0.931

**Q.** How did the switch fluorescence ratio turn out when ATTGAAAAG was run?
**A.** 0.962

**Q.** For ATTGAACGAT, which switch fluorescence ratio is on record?
**A.** 1.02

**Q.** How did the switch fluorescence ratio turn out when ATTGACAACG was run?
**A.** 0.904

**Q.** ATTGACACCT was tested. Which switch fluorescence ratio did it give?
**A.** 1.23

**Q.** Which switch fluorescence ratio does the source give for ATTGACCAGC here?
**A.** 1.06

**Q.** For ATTGACGGAA, which switch fluorescence ratio is on record?
**A.** 1.03

**Q.** ATTGATCCC was tested. Which switch fluorescence ratio did it give?
**A.** 0.988

**Q.** For ATTGATTTTG, which switch fluorescence ratio is on record?
**A.** 1

**Q.** For ATTGCCGAGA, which switch fluorescence ratio is on record?
**A.** 1

**Q.** With ATTGCGACAG as the sequence, how does the switch fluorescence ratio read?
**A.** 0.99

**Q.** How did the switch fluorescence ratio turn out when ATTGCGCACC was run?
**A.** 1.03

**Q.** Which switch fluorescence ratio does the source give for ATTGCTTTCT here?
**A.** 1.02

**Q.** ATTGGACGGA was tested. Which switch fluorescence ratio did it give?
**A.** 1.02

**Q.** For ATTGGCCTAG, which switch fluorescence ratio is on record?
**A.** 1.01

**Q.** ATTGGCGCTC was tested. Which switch fluorescence ratio did it give?
**A.** 1.01

**Q.** Which switch fluorescence ratio does the source give for ATTGGCGGGG here?
**A.** 1.06

**Q.** Which switch fluorescence ratio does the source give for ATTGGCTCGG here?
**A.** 0.973

**Q.** How did the switch fluorescence ratio turn out when ATTGGGCCAC was run?
**A.** 0.982

**Q.** ATTGGTCCAA was tested. Which switch fluorescence ratio did it give?
**A.** 1.02

**Q.** ATTGGTGAAA was tested. Which switch fluorescence ratio did it give?
**A.** 1.01

**Q.** With ATTGGTTAG as the sequence, how does the switch fluorescence ratio read?
**A.** 0.976

**Q.** For ATTGGTTCTA, which switch fluorescence ratio is on record?
**A.** 1.07

**Q.** With ATTGTAATGC as the sequence, how does the switch fluorescence ratio read?
**A.** 1.28

**Q.** For ATTGTATGCC, which switch fluorescence ratio is on record?
**A.** 0.917

**Q.** How did the switch fluorescence ratio turn out when ATTGTCAGAA was run?
**A.** 0.976
